Positions count from the first letter of the chain named. No constants are given. Whether binding was seen depends on the method and setting. In cells and extracts the contact can be indirect. Some results given as binding are weak or reduced against the parent protein; the word gives no strength. For part of these data: Where a sequence is shown, tags or fusion partners need not be part of it.
What was measured:
[1] = target: myc-CCDC22 (144–627) (human) (UniProt O60826); assay: co-IP; Myc-Trap on lysates of HEK293T cells transfected with full-length, point-mutant or truncated myc-CCDC22; blotted for endogenous proteins
[2] = target: myc-CCDC22 (1–143) (human) (UniProt O60826); assay: as above
[3] = target: myc-CCDC22 (1–322) (human) (UniProt O60826); assay: as above
[4] = target: myc-CCDC22 (323–627) (human) (UniProt O60826); assay: as above
[5] = target: myc-CCDC22 E239K, expressed in HEK293T (human) (UniProt O60826); assay: as above
[6] = target: myc-CCDC22 R128Q, expressed in HEK293T (human) (UniProt O60826); assay: as above
[7] = target: myc-CCDC22 R321W, expressed in HEK293T (human) (UniProt O60826); assay: as above
[8] = target: myc-CCDC22 T17A, expressed in HEK293T (human) (UniProt O60826); assay: as above
[9] = target: myc-CCDC22 T30A, expressed in HEK293T (human) (UniProt O60826); assay: as above
[10] = target: T1, VPS33B K419D L431K-FLAG-BirA* (human) (UniProt Q9H267); assay: co-IP; anti-FLAG M2 magnetic resin on lysates of stable HEK293 Flp-In T-REx cells expressing FLAG-BirA*-tagged bait (tetracycline-induced); 10 mM Tris-HCl pH 7.5, 150 mM NaCl, 0.5 mM EDTA, 0.5% NP-40; 1 h at 4 °C; eluted with FLAG peptide; blotted for endogenous protein
T1 sequence: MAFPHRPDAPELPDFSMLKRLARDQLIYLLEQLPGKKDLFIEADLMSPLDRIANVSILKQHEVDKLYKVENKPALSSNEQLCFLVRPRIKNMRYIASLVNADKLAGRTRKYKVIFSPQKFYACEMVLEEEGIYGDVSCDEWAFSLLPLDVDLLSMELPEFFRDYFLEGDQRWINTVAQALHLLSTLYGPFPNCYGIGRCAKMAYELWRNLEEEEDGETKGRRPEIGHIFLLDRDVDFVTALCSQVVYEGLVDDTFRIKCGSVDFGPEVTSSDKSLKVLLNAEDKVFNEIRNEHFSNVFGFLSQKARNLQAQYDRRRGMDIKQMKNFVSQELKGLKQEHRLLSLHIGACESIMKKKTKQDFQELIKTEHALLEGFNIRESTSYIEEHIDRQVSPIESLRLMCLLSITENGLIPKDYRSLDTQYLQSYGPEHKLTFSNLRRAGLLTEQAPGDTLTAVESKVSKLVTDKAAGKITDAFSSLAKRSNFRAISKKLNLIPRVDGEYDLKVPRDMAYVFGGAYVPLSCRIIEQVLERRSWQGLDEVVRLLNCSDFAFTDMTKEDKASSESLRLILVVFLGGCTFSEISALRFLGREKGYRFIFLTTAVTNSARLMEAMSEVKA

Protein sequences, listed by entry. Tags and fused reporters are not part of them. Lines headed by an entry give the natural chain unless they say otherwise; changes in a name come on top. Residues count along the entry.
UniProt O60826: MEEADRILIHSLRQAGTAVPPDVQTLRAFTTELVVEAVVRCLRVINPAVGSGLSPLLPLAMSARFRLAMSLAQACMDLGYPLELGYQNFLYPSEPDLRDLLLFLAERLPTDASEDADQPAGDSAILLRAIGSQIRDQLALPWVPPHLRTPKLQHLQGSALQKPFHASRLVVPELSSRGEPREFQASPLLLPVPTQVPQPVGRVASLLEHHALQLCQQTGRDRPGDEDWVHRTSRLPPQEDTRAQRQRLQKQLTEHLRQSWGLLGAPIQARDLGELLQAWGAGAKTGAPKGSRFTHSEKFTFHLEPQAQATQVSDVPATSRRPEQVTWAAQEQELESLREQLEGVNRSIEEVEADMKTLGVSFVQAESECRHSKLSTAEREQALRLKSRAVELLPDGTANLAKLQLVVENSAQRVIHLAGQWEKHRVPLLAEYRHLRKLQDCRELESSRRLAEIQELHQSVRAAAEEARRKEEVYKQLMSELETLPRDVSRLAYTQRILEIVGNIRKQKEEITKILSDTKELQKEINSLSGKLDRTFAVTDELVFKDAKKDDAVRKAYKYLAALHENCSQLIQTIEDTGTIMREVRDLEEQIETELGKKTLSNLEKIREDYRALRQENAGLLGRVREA
myc-CCDC22 (1–322): residues 1-322 of O60826
myc-CCDC22 (1–143): residues 1-143 of O60826
myc-CCDC22 (144–627): residues 144-627 of O60826
myc-CCDC22 (323–627): residues 323-627 of O60826

[11] = target: T2, VPS33B P428D L431K-FLAG-BirA* (human) (UniProt Q9H267); assay: as above
T2 sequence: T1 sequence with D419K, P428D

[12] = target: T3, VPS33B-FLAG-BirA* (human) (UniProt Q9H267); assay: as above
T3 sequence: T1 sequence with D419K, K431L

B1: endogenous VIPAR (protein, UniProt Q9H9C1 1-493)
chain: MNRTKGDEEEYWNSSKFKAFTFDDEDDELSQLKESKRAVNSLRDFVDDDDDDDLERVSWSGEPVGSISWSIRETAGNSGSTHEGREQLKSRNSFSSYAQLPKPTSTYSLSSFFRGRTRPGSFQSLSDALSDTPAKSYAPELGRPKGEYRDYSNDWSPSDTVRRLRKGKVCSLERFRSLQDKLQLLEEAVSMHDGNVITAVLIFLKRTLSKEILFRELEVRQVALRHLIHFLKEIGDQKLLLDLFRFLDRTEELALSHYREHLNIQDPDKRKEFLKTCVGLPFSAEDSAHIQDHYTLLERQIIIEANDRHLESAGQTEIFRKHPRKASILNMPLVTTLFYSCFYHYTEAEGTFSSPVNLKKTFKIPDKQYVLTALAARAKLRAWNDVDALFTTKNWLGYTKKRAPIGFHRVVEILHKNNAPVQILQEYVNLVEDVDTKLNLATKFKCHDVVIDTYRDLKDRQQLLAYRSKVDKGSAEEEKIDALLSSSQIRWKN
binding [1]: binds
binding [2]: no binding
binding [3]: no binding
binding [4]: binds
binding [5]: binds
binding [6]: binds
binding [7]: binds
binding [8]: binds
binding [9]: binds
binding [10]: no binding
binding [11]: binds weakly
binding [12]: binds
